Reference: the BET-seq Pho4 binding data (Le et al. 2018)
Some of the results follow. Values were computed here from the reads of four pooled replicates and scatter widely.

Each sequence was assayed against T1, Pho4 (S. cerevisiae) (UniProt P07270) (assay: relative binding free energy (BET-seq); higher = weaker binding). Conditions: reference: library average.
T1 sequence: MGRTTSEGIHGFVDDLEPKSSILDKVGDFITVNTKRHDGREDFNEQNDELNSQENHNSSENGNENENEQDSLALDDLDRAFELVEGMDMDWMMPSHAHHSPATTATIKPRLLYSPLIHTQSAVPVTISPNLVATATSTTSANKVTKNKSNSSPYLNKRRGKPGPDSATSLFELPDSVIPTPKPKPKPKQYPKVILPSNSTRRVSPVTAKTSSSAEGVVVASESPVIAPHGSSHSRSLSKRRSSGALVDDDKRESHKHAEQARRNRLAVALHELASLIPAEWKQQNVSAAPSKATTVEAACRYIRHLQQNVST
GAAGTCACGTGGAGTA was tested, and the “relative binding free energy” value was 0.31 kcal/mol.
With AGGAACACGTGGGTAA the “relative binding free energy” value was -0.08 kcal/mol.
With GGAGCCACGTGGTTTG the “relative binding free energy” value was 0 kcal/mol.
TTGGTCACGTGTTCTA was tested, and the “relative binding free energy” value was 0.08 kcal/mol.
GATGACACGTGGGCGT was tested, and the “relative binding free energy” value was 0 kcal/mol.
GATGACACGTGTGGCG was tested, and the “relative binding free energy” value was 0.14 kcal/mol.
GATATCACGTGGTATG was tested, and the “relative binding free energy” value was 0.14 kcal/mol.
With GAATGCACGTGATTGT the “relative binding free energy” value was 0.26 kcal/mol.
TTTTCCACGTGGTTAA was tested, and the “relative binding free energy” value was 0 kcal/mol.
GGCATCACGTGTGGAA was tested, and the “relative binding free energy” value was 0.21 kcal/mol.
With TTGCTCACGTGGAGGT the “relative binding free energy” value was 0.14 kcal/mol.
In the case of AGCATCACGTGTGGAG, the “relative binding free energy” value is reported as 0.14 kcal/mol.
In the case of AGACTCACGTGTTGGG, the “relative binding free energy” value is reported as 0.23 kcal/mol.
ATGGGCACGTGATTGG was tested, and the “relative binding free energy” value was 0.04 kcal/mol.
With GCTGTCACGTGCAGTT the “relative binding free energy” value was 0.18 kcal/mol.
With TTCTGCACGTGATTTA the “relative binding free energy” value was -0.09 kcal/mol.
With TCTTGCACGTGATTTT the “relative binding free energy” value was 0.06 kcal/mol.
GAAAGCACGTGTTGAG was tested, and the “relative binding free energy” value was -0.02 kcal/mol.
With GGAGTCACGTGTGAAT the “relative binding free energy” value was 0.26 kcal/mol.
For TGTATCACGTGTCGAG, the “relative binding free energy” value was 0.26 kcal/mol.
CTGTACACGTGGTGCT was tested, and the “relative binding free energy” value was -0.05 kcal/mol.
In the case of ATGCTCACGTGCGTGT, the “relative binding free energy” value is reported as 0.17 kcal/mol.
With TCGAGCACGTGGTATT the “relative binding free energy” value was -0.15 kcal/mol.
With TTTTGCACGTGTTGCT the “relative binding free energy” value was 0.04 kcal/mol.
In the case of TGAGACACGTGAGTAG, the “relative binding free energy” value is reported as 0.31 kcal/mol.
In the case of GGGATCACGTGTTGCG, the “relative binding free energy” value is reported as 0.25 kcal/mol.
In the case of GGGCTCACGTGCAGGT, the “relative binding free energy” value is reported as 0.35 kcal/mol.
TTTTCCACGTGGTTGT was tested, and the “relative binding free energy” value was 0.08 kcal/mol.
With GTGCTCACGTGTATAG the “relative binding free energy” value was 0.16 kcal/mol.
For CTCAGCACGTGTGGGT, the “relative binding free energy” value was -0.02 kcal/mol.
With AGGATCACGTGGGAAG the “relative binding free energy” value was -0.06 kcal/mol.
For GGTGGCACGTGATGCG, the “relative binding free energy” value was 0.1 kcal/mol.
In the case of GGTTACACGTGAAGTA, the “relative binding free energy” value is reported as 0.34 kcal/mol.
For ATTTGCACGTGTGCAG, the “relative binding free energy” value was -0.05 kcal/mol.
For GTTTACACGTGAGGGA, the “relative binding free energy” value was 0.39 kcal/mol.
TAAGTCACGTGGTGAG was tested, and the “relative binding free energy” value was 0.02 kcal/mol.
In the case of TTGGGCACGTGACGGT, the “relative binding free energy” value is reported as 0.12 kcal/mol.
With TGTTACACGTGAGATA the “relative binding free energy” value was 0.22 kcal/mol.
With GGGTACACGTGAGATG the “relative binding free energy” value was 0.32 kcal/mol.
TTGATCACGTGTAATG was tested, and the “relative binding free energy” value was 0.23 kcal/mol.
For AGTGGCACGTGAGCGA, the “relative binding free energy” value was 0.14 kcal/mol.
For AAGCGCACGTGTGAGT, the “relative binding free energy” value was -0.06 kcal/mol.
For TAATGCACGTGTGTTG, the “relative binding free energy” value was 0 kcal/mol.
For GGTAACACGTGCTGGC, the “relative binding free energy” value was 0.13 kcal/mol.
With TTTAGCACGTGTAAGG the “relative binding free energy” value was 0.04 kcal/mol.
With ACAGTCACGTGGTAGT the “relative binding free energy” value was -0.01 kcal/mol.
With CAGTTCACGTGTGTGC the “relative binding free energy” value was 0.22 kcal/mol.
For TTGCTCACGTGTGTCG, the “relative binding free energy” value was 0.31 kcal/mol.
For GGATGCACGTGCTTGT, the “relative binding free energy” value was -0.06 kcal/mol.
GCGCGCACGTGGGTGT was tested, and the “relative binding free energy” value was -0.18 kcal/mol.
For ATCGGCACGTGGGAGG, the “relative binding free energy” value was -0.11 kcal/mol.
With TGGTGCACGTGTTGAG the “relative binding free energy” value was 0.05 kcal/mol.
With TGGTACACGTGTTGTA the “relative binding free energy” value was 0.06 kcal/mol.
For GGGCGCACGTGTTTAA, the “relative binding free energy” value was 0.07 kcal/mol.
GCATGCACGTGGTATT was tested, and the “relative binding free energy” value was -0.04 kcal/mol.
In the case of ATTATCACGTGGGTCC, the “relative binding free energy” value is reported as 0.1 kcal/mol.
In the case of TCTGGCACGTGGGGGC, the “relative binding free energy” value is reported as -0.17 kcal/mol.
In the case of TAGGTCACGTGTCCGT, the “relative binding free energy” value is reported as 0.06 kcal/mol.
For CTTTACACGTGGTTAA, the “relative binding free energy” value was -0.05 kcal/mol.
In the case of GTTTACACGTGACGGG, the “relative binding free energy” value is reported as 0.27 kcal/mol.
With GTATGCACGTGGATGC the “relative binding free energy” value was 0.06 kcal/mol.
In the case of TTAAACACGTGGTTCT, the “relative binding free energy” value is reported as -0.14 kcal/mol.
AAATACACGTGGGAGT was tested, and the “relative binding free energy” value was -0.11 kcal/mol.
GTATTCACGTGGACGT was tested, and the “relative binding free energy” value was 0.23 kcal/mol.
In the case of TAGGTCACGTGGTATG, the “relative binding free energy” value is reported as 0.03 kcal/mol.
For CGTTTCACGTGTCATG, the “relative binding free energy” value was 0.26 kcal/mol.
GTATGCACGTGCGAGT was tested, and the “relative binding free energy” value was -0.02 kcal/mol.
In the case of CATTGCACGTGTGTGG, the “relative binding free energy” value is reported as 0.1 kcal/mol.
With TTCTGCACGTGGATTG the “relative binding free energy” value was -0.01 kcal/mol.
With TTGAACACGTGGTGCA the “relative binding free energy” value was -0.07 kcal/mol.
For TGGCACACGTGTTATT, the “relative binding free energy” value was 0.16 kcal/mol.
With ATTAGCACGTGATTCT the “relative binding free energy” value was 0.05 kcal/mol.
For TAATTCACGTGTCGAG, the “relative binding free energy” value was 0.18 kcal/mol.
For CAGTGCACGTGTGGGC, the “relative binding free energy” value was -0.11 kcal/mol.
In the case of TGGTGCACGTGGTTCT, the “relative binding free energy” value is reported as -0.13 kcal/mol.
In the case of ACATTCACGTGTTTAT, the “relative binding free energy” value is reported as 0.28 kcal/mol.
For TCCTTCACGTGGTTTT, the “relative binding free energy” value was 0.32 kcal/mol.
ATTGACACGTGGTATG was tested, and the “relative binding free energy” value was -0.17 kcal/mol.
GATGTCACGTGGCTAA was tested, and the “relative binding free energy” value was 0.36 kcal/mol.
With TTCAGCACGTGTATTT the “relative binding free energy” value was 0.12 kcal/mol.
AGTAGCACGTGGGTGT was tested, and the “relative binding free energy” value was -0.27 kcal/mol.
In the case of ACTAGCACGTGTTGGT, the “relative binding free energy” value is reported as 0 kcal/mol.
With AGTTTCACGTGGTGCC the “relative binding free energy” value was 0.22 kcal/mol.
For ATGTGCACGTGTTTAT, the “relative binding free energy” value was -0.01 kcal/mol.
In the case of CTATGCACGTGGAGTA, the “relative binding free energy” value is reported as -0.03 kcal/mol.
With ATCGGCACGTGGTTCG the “relative binding free energy” value was -0.1 kcal/mol.
GTATGCACGTGCGGAG was tested, and the “relative binding free energy” value was -0.07 kcal/mol.
For GATAGCACGTGGGCGT, the “relative binding free energy” value was -0.32 kcal/mol.
With GTGTTCACGTGACATT the “relative binding free energy” value was 0.3 kcal/mol.
For AGCGACACGTGCGGGG, the “relative binding free energy” value was -0.07 kcal/mol.
In the case of GGCTGCACGTGTCGGG, the “relative binding free energy” value is reported as 0.14 kcal/mol.
TTGGGCACGTGAGTCG was tested, and the “relative binding free energy” value was 0.16 kcal/mol.
TATAGCACGTGAGTGG was tested, and the “relative binding free energy” value was 0.17 kcal/mol.
In the case of TTTACCACGTGTGTGC, the “relative binding free energy” value is reported as -0.04 kcal/mol.
With CGGGGCACGTGTTGAA the “relative binding free energy” value was -0.24 kcal/mol.
In the case of TAGTCCACGTGAGTTT, the “relative binding free energy” value is reported as 0.21 kcal/mol.
In the case of TGGTCCACGTGGTTTT, the “relative binding free energy” value is reported as 0.01 kcal/mol.
In the case of GGGGTCACGTGGGTTA, the “relative binding free energy” value is reported as 0.05 kcal/mol.
With ATGCTCACGTGTGTTA the “relative binding free energy” value was 0.17 kcal/mol.
In the case of GAGGGCACGTGAAGCG, the “relative binding free energy” value is reported as 0.09 kcal/mol.
TGGGACACGTGGGGGC was tested, and the “relative binding free energy” value was -0.09 kcal/mol.
TTCTTCACGTGATGAT was tested, and the “relative binding free energy” value was 0.38 kcal/mol.
For GTCAGCACGTGTCTGT, the “relative binding free energy” value was -0.04 kcal/mol.
For TAAATCACGTGTGAAT, the “relative binding free energy” value was 0.25 kcal/mol.
In the case of GCTAGCACGTGGCGCG, the “relative binding free energy” value is reported as 0.1 kcal/mol.
In the case of TCTGGCACGTGGTGGC, the “relative binding free energy” value is reported as -0.27 kcal/mol.
For GCTCGCACGTGGGGGC, the “relative binding free energy” value was -0.08 kcal/mol.
With CGAGTCACGTGTAGGT the “relative binding free energy” value was 0.16 kcal/mol.
TTTAGCACGTGTACTG was tested, and the “relative binding free energy” value was -0.18 kcal/mol.
With ATACTCACGTGTGGTG the “relative binding free energy” value was 0.11 kcal/mol.
ATGATCACGTGGTGGT was tested, and the “relative binding free energy” value was 0.16 kcal/mol.
In the case of CGTATCACGTGGGGCG, the “relative binding free energy” value is reported as -0.02 kcal/mol.
With TTGTTCACGTGCATTT the “relative binding free energy” value was 0.27 kcal/mol.
In the case of AATGGCACGTGTGGGC, the “relative binding free energy” value is reported as 0.01 kcal/mol.
For TGGGTCACGTGGAGTC, the “relative binding free energy” value was 0 kcal/mol.
